Source: the supplement of paper PMC10600219
Structures can show the parent of a compound that is named as a salt. In all, about 2,800 compounds were measured (“cell viability relative to vehicle”: median about 0.98, lowest 2% from about 0.45 on). This is one part of the list.

The molecules below were run on NCI-H2228 alectinib-DTP (assay: cell viability relative to vehicle (fraction of vehicle); NCI-H2228 is an ALK-positive lung cancer line and DTP means drug-tolerant persister; higher = less growth inhibition). Details: 100 nM; treatment time 6 days.
Summary of the method: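 Parental NCI-H2228 cells and drug-tolerant persister cells (made with 1000 nM of a targeted drug for 13 days) were seeded in 384-well plates. The next day, the 3114-agent TargetMol anti-cancer compound library was added at 100 nM, with DMSO as vehicle. After 6 days, ATP was read with the CellTiter-Glo 3D Cell Viability Assay. Each value is cell viability relative to vehicle-treated cells.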
With CC(C)CC(=O)Nc1n[nH]c2c1CN(C(=O)C1CCN(C)CC1)C2(C)C the cell viability was 1.
In the case of O=C(NCCS(=O)(=O)c1ccc(C(F)(F)F)cn1)c1ccc(Cl)cc1, the cell viability was 1.07.
COc1cccc(CNC(=O)Nc2nc(-c3ccncc3)cs2)c1 was tested, and the cell viability was 1.11.
O=C(CCCCCCNC(=O)c1cnc(N(c2ccccc2)c2ccccc2)nc1)NO [Rocilinostat] was tested, and the cell viability was 0.923.
With O=c1ncccn1[C@@H]1O[C@H](CO)[C@@H](O)[C@H]1O [Zebularine] the cell viability was 1.08.
In the case of CC(=O)N[C@H]1CSSC[C@@H](C(N)=O)NC(=O)[C@H](C(C)C)NC(=O)[C@H](C)NC(=O)[C@H](Cc2c[nH]cn2)NC1=O [Exherin trifluoroacetate], the cell viability was 1.11.
For CCOC(=O)c1cnn(-c2ccccc2)c1NC(=O)c1cc2nc(-c3ccco3)cc(C(F)(F)Cl)n2n1 [Mycro-3], the cell viability was 1.21.
Molecule Cc1ccc(S(=O)(=O)Nc2cc(C(F)(F)F)ccc2C(=O)Nc2nc(-c3ccccc3)cs2)cc1 has a cell viability of 0.852.
Work on COc1cc(C(N)=O)ccc1NC(=O)[C@@H]1N[C@@H](CC(C)(C)C)[C@@]2(C(=O)Nc3cc(Cl)ccc32)[C@H]1c1cccc(Cl)c1F yielded a cell viability of 0.953.
CC(C)n1nc(-c2cc3cc(O)ccc3[nH]2)c2c(N)ncnc21 [Torkinib] was tested, and the cell viability was 0.733.
NCCC[C@H](N)C(=O)O [L-Ornithine] showed a cell viability of 1.01.
Work on CNc1nc(Nc2cnn([C@H]3CCN(C4COC4)C[C@@H]3F)c2Cl)ncc1C(F)(F)F yielded a cell viability of 1.01.
CO[C@H]1/C=C/O[C@@]2(C)Oc3c(C)c(O)c4c(c3C2=O)C2=NC3(CCN(CC(C)C)CC3)NC2=C(NC(=O)/C(C)=C\C=C\[C@H](C)[C@H](O)[C@@H](C)[C@@H](O)[C@@H](C)[C@H](OC(C)=O)[C@@H]1C)C4=O [Rifabutin] was tested, and the cell viability was 0.768.
O=c1cc(-c2ccc(O)cc2)oc2cc(O)cc(O)c12 [Apigenin] showed a cell viability of 0.975.
CCCCCN(CCCOC)C(=O)C(CCC(=O)O)NC(=O)c1ccc(Cl)c(Cl)c1 (stereo not given) [Loxiglumide] showed a cell viability of 0.982.
NNC(=O)c1ccccn1 [2-Picolinyl hydrazide] was tested, and the cell viability was 1.02.
Molecule c1cnc2cc3c(cc2n1)[C@@H]1CNC[C@H]3C1 [Varenicline Tartrate] has a cell viability of 0.794.
For C[C@@H](N)[C@H]1CC[C@H](C(=O)Nc2ccncc2)CC1, the cell viability was 0.956.
Molecule CCn1cc(C(=O)O)c(=O)c2ccc(C)nc21 [Nalidixic acid] has a cell viability of 0.885.
With CCn1cc(C(=O)O)c(=O)c2ccc(C)nc21 [Nalidixic acid sodium salt] the cell viability was 0.846.
COc1ccc(-c2oc3c(CC=C(C)C)c(O[C@@H]4O[C@H](CO)[C@@H](O)[C@H](O)[C@H]4O)cc(O)c3c(=O)c2O[C@@H]2O[C@@H](C)[C@H](O)[C@@H](O)[C@H]2O)cc1 [Icariin] was tested, and the cell viability was 0.967.
Molecule C[C@H]1[C@@H](O)O[C@@H]2O[C@@]3(C)CC[C@H]4[C@H](C)CC[C@@H]1[C@@]24OO3 [Dihydroartemisinin] has a cell viability of 0.987.
Work on COc1ccc2cc(CCC(C)=O)ccc2c1 [Nabumetone] yielded a cell viability of 1.01.
CN(C)c1ccc(C(=O)NCCCCCCC(=O)NO)cc1 [Histone Deacetylase Inhibitor III] gave a cell viability of 0.845.
C#CCN(C)Cc1ccccc1 [Pargyline] was tested, and the cell viability was 1.12.
C#CCN(C)Cc1ccccc1 [Pargyline hydrochloride] showed a cell viability of 0.784.
O=C(COCC(=O)Nc1ccc(Cl)cc1C(=O)O)Nc1cccc(-c2ccoc2)c1 showed a cell viability of 1.17.
Molecule Cc1ccc(-c2nn(C(C)(C)CNC(=O)c3ccncc3)c3ncnc(N)c23)cc1 has a cell viability of 0.96.
CCO[C@@H]1OC(=O)C[C@@H]1NC(=O)[C@@H]1CCCN1C(=O)[C@@H](NC(=O)c1ccc(N)c(Cl)c1)C(C)(C)C [Belnacasan] showed a cell viability of 1.05.
In the case of Cc1ccc(NC(=O)c2ccc(CN3CCN(C)CC3)cc2)cc1Nc1nc(-c2cccnc2)cs1 [Masitinib], the cell viability was 1.03.
With O=C(Nc1cc(C(F)(F)F)ccc1N1CCCCC1)c1ccncc1 the cell viability was 1.15.
For NCCS(=O)(=O)O [Taurine], the cell viability was 1.22.
Work on COc1cc2nc(N3CCN(C(=O)c4ccco4)CC3)nc(N)c2cc1OC [Prazosin hydrochloride] yielded a cell viability of 1.09.
Molecule CCCCS(=O)(=O)N[C@@H](Cc1ccc(OCCCCC2CCNCC2)cc1)C(=O)O [Tirofiban hydrochloride monohydrate] has a cell viability of 1.02.
With Cc1cc(Cn2cnc3c2CC(C(=O)O)N(C(=O)C(c2ccccc2)c2ccccc2)C3)ccc1N(C)C (stereo not given) the cell viability was 1.07.
CCn1c(=Cc2cccc[n+]2CC)sc(=C2Sc3ccccc3N2C)c1=O gave a cell viability of 1.06.
O=c1c(O)c(-c2cc(O)c(O)c(O)c2)oc2cc(O)cc(O)c12 [Myricetin] gave a cell viability of 1.17.
OC[C@@H](O)[C@@H](O)[C@@H](O)[C@@H](O)CO [Allitol] showed a cell viability of 0.998.
Work on COc1ccc(-c2cc(=O)c3c(O)cc(O)cc3o2)cc1 [Acacetin] yielded a cell viability of 0.908.
In the case of Cc1ccc(S(=O)(=O)NC(=O)NN2CC3CCCC3C2)cc1 (stereo not given) [Gliclazide], the cell viability was 0.919.
COc1ccc(C[C@H](NC(=O)[C@H](C)NC(=O)CN2CCOCC2)C(=O)N[C@@H](Cc2ccccc2)C(=O)C2(C)CO2)cc1 (stereo in doubt) gave a cell viability of 1.03.
In the case of CCN(CC)C(=O)Cc1csc(NS(=O)(=O)c2cccc(Cl)c2C)n1, the cell viability was 0.987.
CC1(C)CCC[C@](C)([C@H]2CC[C@]3(C)[C@@H]2[C@H](O)C[C@@H]2[C@@]4(C)CC[C@H](O)C(C)(C)[C@@H]4CC[C@]23C)O1 [Panaxadiol] showed a cell viability of 0.909.
Work on COc1cc(OC)c(/C=C/S(=O)(=O)Cc2ccc(OC)c(OP(=O)(O)O)c2)c(OC)c1 [Briciclib] yielded a cell viability of 0.554.
COc1ccc(COc2ccc(Cc3cnc(N)nc3N)cc2OC)cc1 gave a cell viability of 1.
CCNC(=O)c1cc2c(-c3cc(C(C)(C)O)ccc3Oc3c(C)cc(F)cc3C)cn(C)c(=O)c2[nH]1 gave a cell viability of 0.855.
Cc1cc([N+](=O)[O-])ccc1NS(=O)(=O)c1cc(Cl)ccc1Cl gave a cell viability of 0.953.
In the case of CC(C)(C)[Si](C)(C)Oc1ccc2oc(=O)c3c(c2c1)CCCN3, the cell viability was 0.959.
In the case of COc1ccc2[nH]cc(CCNC(C)=O)c2c1 [Melatonine], the cell viability was 1.04.
In the case of O=C([O-])c1ccccc1O.[Na+] [Sodium salicylate], the cell viability was 1.02.
